{"source": "the supplement of paper PMC8728848", "binders": {"B1": {"name": "PA-IL (Pseudomonas aeruginosa), Q05097 (protein)", "chain": "MAWKGEVLANNEAGQVTSIIYNPGDVITIVAAGWASYGPTQKWGPQGDREHPDQGLICHDAFCGALVMKIGNSGTIPVNTGLFRWVAPNNVQGAITLIYNDVPGTYGNNSGSFSVNIGKDQS"}}, "assay_in_all_cases": "glycan array binding signal (z-score within array); higher = stronger binding", "conditions_in_all_cases": "glycan notation: IUPAC condensed, linker removed", "key": {"[1]": {"biological_target": "Neu5Ac(a2-8)Neu5Ac(a2-8)Neu5Ac", "method_in_brief": "(§1)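 Negative Z-scores can be read as non-binding. The Z-score is calculated within each array and then averaged across arrays of one protein sequence at different concentrations or buffers and across linkers. Arrays, 3228 in all, were curated from the Consortium for Functional Glycomics database and kept only where the protein sequence was available.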"}, "[2]": {"biological_target": "Neu5Ac(a2-8)Neu5Ac(a2-8)Neu5Ac(a2-3)Gal(b1-4)Glc", "method_in_brief": "as §1"}, "[3]": {"biological_target": "Neu5Ac(a2-8)Neu5Ac(a2-8)Neu5Ac(a2-3)[Gal(b1-3)GalNAc(b1-4)]Gal(b1-4)Glc", "method_in_brief": "as §1"}, "[4]": {"biological_target": "Neu5Ac(a2-8)Neu5Ac(a2-8)Neu5Ac(a2-3)[GalNAc(b1-4)]Gal(b1-4)Glc", "method_in_brief": "as §1"}, "[5]": {"biological_target": "Neu5Ac(a2-8)Neu5Ac(a2-8)Neu5Ac(a2-8)Neu5Ac(a2-3)[GalNAc(b1-4)]Gal(b1-4)Glc", "method_in_brief": "as §1"}, "[6]": {"biological_target": "Neu5Ac(a2-8)Neu5Gc(a2-3)Gal(b1-4)GlcNAc", "method_in_brief": "as §1"}, "[7]": {"biological_target": "Neu5Ac(b2-6)Gal(b1-4)GlcNAc", "method_in_brief": "as §1"}, "[8]": {"biological_target": "Neu5Ac(b2-6)GalNAc", "method_in_brief": "as §1"}, "[9]": {"biological_target": "Neu5Ac9Ac(a2-3)Gal(b1-3)GlcNAc", "method_in_brief": "as §1"}, "[10]": {"biological_target": "Neu5Ac9Ac(a2-3)Gal(b1-4)GlcNAc", "method_in_brief": "as §1"}, "[11]": {"biological_target": "Neu5Ac9Ac(a2-6)Gal(b1-4)GlcNAc", "method_in_brief": "as §1"}, "[12]": {"biological_target": "Neu5Gc(a2-3)Gal(b1-3)GlcNAc", "method_in_brief": "as §1"}, "[13]": {"biological_target": "Neu5Gc(a2-3)Gal(b1-3)[Fuc(a1-4)]GlcNAc", "method_in_brief": "as §1"}, "[14]": {"biological_target": "Neu5Gc(a2-3)Gal(b1-4)Glc", "method_in_brief": "as §1"}, "[15]": {"biological_target": "Neu5Gc(a2-3)Gal(b1-4)GlcNAc", "method_in_brief": "as §1"}, "[16]": {"biological_target": "Neu5Gc(a2-3)Gal(b1-4)GlcNAc(b1-3)Gal(b1-4)GlcNAc(b1-2)Man(a1-3)[Neu5Gc(a2-3)Gal(b1-4)GlcNAc(b1-3)Gal(b1-4)GlcNAc(b1-2)Man(a1-6)]Man(b1-4)GlcNAc(b1-4)GlcNAc", "method_in_brief": "as §1"}, "[17]": {"biological_target": "Neu5Gc(a2-3)Gal(b1-4)[Fuc(a1-3)]GlcNAc", "method_in_brief": "as §1"}, "[18]": {"biological_target": "Neu5Gc(a2-6)Gal(b1-4)GlcNAc", "method_in_brief": "as §1"}, "[19]": {"biological_target": "Neu5Gc(a2-6)GalNAc", "method_in_brief": "as §1"}, "[20]": {"biological_target": "Neu5Gc(a2-8)Neu5Ac(a2-3)Gal(b1-4)GlcNAc", "method_in_brief": "as §1"}, "[21]": {"biological_target": "Neu5Gc(a2-8)Neu5Gc(a2-3)Gal(b1-4)GlcNAc", "method_in_brief": "as §1"}, "[22]": {"biological_target": "Neu5Gc(a2-8)Neu5Gc(a2-3)Gal(b1-4)GlcNAc(b1-3)Gal(b1-4)GlcNAc", "method_in_brief": "as §1"}, "[23]": {"biological_target": "Neu5Gc(a2-8)Neu5Gc(a2-6)Gal(b1-4)GlcNAc", "method_in_brief": "as §1"}, "[24]": {"biological_target": "Neu5Gc(b2-6)Gal(b1-4)GlcNAc", "method_in_brief": "as §1"}}, "note": "Some of the results follow."}
{"binder": "B1", "values": [{"measurement": "glycan array binding signal (z-score)", "setting": "[1]", "result": -0.235}, {"measurement": "glycan array binding signal (z-score)", "setting": "[2]", "result": -0.218}, {"measurement": "glycan array binding signal (z-score)", "setting": "[3]", "result": -0.189}, {"measurement": "glycan array binding signal (z-score)", "setting": "[4]", "result": -0.19}, {"measurement": "glycan array binding signal (z-score)", "setting": "[5]", "result": -0.214}, {"measurement": "glycan array binding signal (z-score)", "setting": "[6]", "result": -0.224}, {"measurement": "glycan array binding signal (z-score)", "setting": "[7]", "result": -0.237}, {"measurement": "glycan array binding signal (z-score)", "setting": "[8]", "result": -0.224}, {"measurement": "glycan array binding signal (z-score)", "setting": "[9]", "result": -0.233}, {"measurement": "glycan array binding signal (z-score)", "setting": "[10]", "result": -0.205}, {"measurement": "glycan array binding signal (z-score)", "setting": "[11]", "result": -0.222}, {"measurement": "glycan array binding signal (z-score)", "setting": "[12]", "result": -0.231}, {"measurement": "glycan array binding signal (z-score)", "setting": "[13]", "result": -0.214}, {"measurement": "glycan array binding signal (z-score)", "setting": "[14]", "result": -0.208}, {"measurement": "glycan array binding signal (z-score)", "setting": "[15]", "result": -0.236}, {"measurement": "glycan array binding signal (z-score)", "setting": "[16]", "result": -0.227}, {"measurement": "glycan array binding signal (z-score)", "setting": "[17]", "result": -0.228}, {"measurement": "glycan array binding signal (z-score)", "setting": "[18]", "result": -0.212}, {"measurement": "glycan array binding signal (z-score)", "setting": "[19]", "result": -0.224}, {"measurement": "glycan array binding signal (z-score)", "setting": "[20]", "result": -0.245}, {"measurement": "glycan array binding signal (z-score)", "setting": "[21]", "result": -0.238}, {"measurement": "glycan array binding signal (z-score)", "setting": "[22]", "result": -0.244}, {"measurement": "glycan array binding signal (z-score)", "setting": "[23]", "result": -0.237}, {"measurement": "glycan array binding signal (z-score)", "setting": "[24]", "result": -0.226}]}
